In the supplement of paper PMC3334620:
Whole data set: some 33,000 sequences, median “E-score (-0.5 to 0.5)” near -0.016, cut for the highest 2% near 0.32. The list shows a part of the results.

Molecular target: T1, Stp1 (UniProt B3LFK1)
T1 sequence: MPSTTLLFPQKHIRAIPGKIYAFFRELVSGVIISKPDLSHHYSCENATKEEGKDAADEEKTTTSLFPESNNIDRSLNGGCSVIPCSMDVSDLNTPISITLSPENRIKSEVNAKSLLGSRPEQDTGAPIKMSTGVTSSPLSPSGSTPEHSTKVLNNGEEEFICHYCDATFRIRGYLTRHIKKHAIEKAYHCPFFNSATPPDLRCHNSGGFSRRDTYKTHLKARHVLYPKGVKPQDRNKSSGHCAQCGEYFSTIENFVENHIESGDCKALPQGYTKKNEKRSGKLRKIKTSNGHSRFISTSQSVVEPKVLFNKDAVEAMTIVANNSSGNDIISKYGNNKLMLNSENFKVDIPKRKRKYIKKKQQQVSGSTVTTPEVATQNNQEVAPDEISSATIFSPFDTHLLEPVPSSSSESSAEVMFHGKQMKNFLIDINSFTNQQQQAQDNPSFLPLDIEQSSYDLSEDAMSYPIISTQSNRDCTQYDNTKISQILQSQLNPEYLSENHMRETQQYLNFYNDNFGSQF
Assay: PBM E-score (8-mer binding enrichment) (E-score (-0.5 to 0.5)); higher = stronger / more preferred TF binding; most listed sequences are background and not binding sites
Details: protein concentration: 200 nM; construct: GST-full length
How it was run: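 PURExpress in vitro transcription/translation supplied GST-tagged yeast transcription factors, either full-length or DNA-binding domain. Applied at about 100-200 nM to universal all-10-mer Agilent arrays double-stranded by primer extension, the bound protein was detected with fluorescent anti-GST. E-scores, modified Wilcoxon-Mann-Whitney statistics, were given by the Universal PBM Analysis Suite to ungapped eight-base words pooled with their reverse complements after masliner normalisation.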

| Sequence | PBM E-score |
| --- | --- |
| AATCTACC | -0.0419 |
| GTTCATAA | 0.032 |
| GACACCTA | -0.084 |
| CCAAGGAG | -0.142 |
| GCGATCTA | 0.138 |
| CGTGTGAA | 0.0817 |
| CTGGACTA | -0.185 |
| CAGGTTCA | -0.211 |
| ATCGTGCA | 0.0249 |
| AGCCATAT | 0.125 |
| ATCGAGAC | -0.121 |
| CCACGCCG | 0.34 |
| AATGGTTA | 0.0181 |
| CAGCGATA | -0.156 |
| GATCCAGA | -0.0161 |
| AGATAATC | -0.0139 |
| TCCATAAA | 0.0328 |
| CGATCCTC | -0.285 |
| CCCTATAA | -0.236 |
| ACGTACTC | -0.0171 |
| GTCTCCAC | -0.0282 |
| CTCTGGTC | -0.00137 |
| AAGGCAGA | -0.164 |
| GACACAGA | 0.0869 |
| AAGGGACT | -0.266 |

| Sequence | PBM E-score |
| --- | --- |
| CAGCCTAA | -0.107 |
| AAGACTAT | 0.04 |
| AAGATTCA | 0.0167 |
| CCGCTCAG | 0.165 |
| CCATCGAG | 0.154 |
| TATTAATA | -0.106 |
| CCAACTAC | -0.0511 |
| CAACACGG | 0.237 |
| CTTCGCGC | 0.0799 |
| CTCCTCGA | -0.128 |
| ACGGACAC | 0.218 |
| ACCGAGGG | -0.404 |
| AGGGCTCG | -0.0876 |
| CCTCACCA | -0.0872 |
| AAGAAATG | 0.131 |
| AAGTGGTA | -0.14 |
| ATTTTTGA | 0.14 |
| GATCTGAC | -0.0927 |
| CGATTAAA | 0.165 |
| ATTTGGTA | 0.144 |
| CTACTCTA | -0.0312 |
| AGCGCGGC | 0.402 |
| CGGGTAAA | 0.114 |
| CCCGGGTC | -0.196 |
| CATCCTCG | 0.0185 |

| Sequence | PBM E-score |
| --- | --- |
| GATTAATC | -0.126 |
| CTATTGAG | -0.0298 |
| AGCGTTCC | 0.0306 |
| ACTTAATG | 0.107 |
| CTGGTCCC | -0.428 |
| CCAACGAG | -0.251 |
| AACTATTA | 0.0551 |
| ATATGCAA | 0.163 |
| ATATTATG | 0.262 |
| GTCGCTAA | 0.104 |
| TTTCGAAA | 0.229 |
| ATTAGACA | 0.0465 |
| ACGGAGAT | 0.025 |
| AAATTAAC | 0.0951 |
| AGCCGATG | -0.046 |
| AGGTACTG | -0.0685 |
| GGGACCAC | -0.149 |
| ACTGGCAT | -0.0932 |
| CAATTATG | 0.218 |
| ACGCATAT | -0.1 |
| CACACCTA | -0.00229 |
| CGGGGCCA | -0.16 |
| ATATTGAT | 0.181 |
| ATCAAACA | 0.0879 |
| AATCCCAA | 0.00489 |

| Sequence | PBM E-score |
| --- | --- |
| TATTACGA | 0.0415 |
| CCTCGTTC | -0.0717 |
| CAGTCGCA | -0.0873 |
| GCATGTCC | -0.112 |
| ACGCATCT | -0.0566 |
| CTGTTCTA | 0.074 |
| CTCGGAAC | 0.0137 |
| ATCGTGTA | -0.0176 |
| ACGCATAG | 0.0768 |
| TGTAGACA | 0.0162 |
| CGGCTCAG | 0.379 |
| CATGATAA | 0.0453 |
| CTGCCACC | -0.0141 |
| ACAAGCGC | 0.114 |
| ACCGAATC | -0.0403 |
| ATGGTCGC | -0.00616 |
| CATTGGCC | -0.224 |
| CCTACCCA | -0.0762 |
| GGATATAA | 0.135 |
| TCCCTCAA | -0.00823 |
| GCTAGGAC | -0.0365 |
| ACGTGTCG | -0.0661 |
| GATTCGGA | 0.122 |
| TGTTAACA | -0.012 |
| ACTTTTAG | -0.00241 |

| Sequence | PBM E-score |
| --- | --- |
| CATCTAGA | -0.00728 |
| ACATAAGC | 0.00404 |
| GTGCACCA | -0.0112 |
| AGAGACCT | -0.174 |
| CCATGATA | -0.108 |
| ATACTCAG | 0.06 |
| CAGTTGAG | -0.112 |
| GCCTCGGA | -0.00755 |
| GACTCTCA | -0.0854 |
| ACACACAT | 0.16 |
| AGGTCGTC | -0.156 |
| AAGTACTT | 0.0668 |
| AATCACAT | -0.108 |
| GGCCGGGA | -0.23 |
| CAGATAGC | -0.217 |
| TACGTCTA | -0.0514 |
| GGTTCTTA | -0.145 |
| AGATCACT | 0.0299 |
| CGACACAA | -0.0856 |
| GCTGCGAA | -0.0255 |
| ACACAGCC | 0.0119 |
| CTGAGCGC | 0.0168 |
| AAGGAGTC | -0.288 |
| AACCCGTA | 0.0688 |
| CTAGCATA | -0.0957 |

| Sequence | PBM E-score |
| --- | --- |
| GATAACTA | -0.0736 |
| ATGGTTCA | 0.1 |
| CGGAAGGA | -0.0947 |
| ACTGATAC | -0.055 |
| AAATCTGC | 0.0819 |
| GCTCGCCC | -0.205 |
| ATTGACAC | -0.0414 |
| GTTCACAA | 0.159 |
| CCTTAGAA | 0.025 |
| AAAATGCC | 0.352 |
| CTTGATCC | 0.0811 |
| AAATGGTA | 0.166 |
| GCCGGGTA | -0.155 |
| AGACGGCT | 0.343 |
| GTATAACA | 0.123 |
| ACACTTGC | 0.0142 |
| GATGCCGA | 0.29 |
| GGCGTGAC | 0.0543 |
| GCTGGAGA | -0.233 |
| AACATCCT | -0.0558 |
| GCTAATGA | -0.0283 |
| AGGCCTAT | -0.178 |
| CGAGCTAA | -0.191 |
| GATGCAAA | -0.115 |
| GCTGAGAC | 0.0379 |

| Sequence | PBM E-score |
| --- | --- |
| AGCGTAGG | -0.0457 |
| GAAGAGGC | 0.257 |
| ATCCAACC | -0.136 |
| GAGGTCAA | -0.207 |
| GCGGTCCA | -0.242 |
| AAACCGGT | -0.0421 |
| CCGGTTCA | -0.218 |
| CGTCCGGC | 0.154 |
| GCAAATAC | 0.0493 |
| AATGCTCT | 0.0301 |
| CCCTCCTA | -0.188 |
| ACGAAGCA | -0.0696 |
| ATATCGAG | 0.123 |
| GACTGAGC | -0.038 |
| CATCATAC | 0.136 |
| GGGGTCGA | -0.0941 |
| ATTATCGA | -0.0447 |
| AAGCATAG | -0.135 |
| ACAGTTGG | -0.0665 |
| AATGTTTG | -0.0926 |
| GATGGAAC | -0.1 |
| AGAGTTAC | -0.232 |
